The campaign covered roughly 94,000 compounds. About 6,200 (6.6%) were called active. The inconclusive results got no clear call from the source; some entries with a clear call stand among them for comparison. Calls come from the whole dose curve; as a rule, active = well fitted inhibition curve with a large enough effect; inconclusive = small, poorly fitted or top-dose-only effect; inactive = flat fitted curve, though single readings scatter. A potency beside an inconclusive call is a rough fit, not a confirmed value.
Assay: Cytotoxic Profiling in HEK 293 Cell Line of Diverse Libraries Using Quantitative High-Throughput Screening; note: nearly all actives have a fitted effect of over 60% in size
Details: HEK 293 viability, ATP luminescence (CellTiter-Glo), 48-72 h; series mostly up to 115 µM
Procedure, shortened: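 ATP-coupled CellTiter-Glo luminescence served as viability read-out, recorded 10 min after reagent addition at room temperature. HEK 293 cells, 250 cells/well, had been incubated with pintool-transferred compound for 48 or 72 hr at 37 degree Celsius.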
Potency is the fitted concentration of half-maximal effect; tags give direction and shape of the fitted curve.

SMILES | Potency
CC(=O)N1CCN(c2nc(-c3c(C)noc3C)cc3cc(C(C)C)oc23)CC1 | inconclusive: 50.1 µM [inhibitor, partial curve, poor fit]
O=C(NCc1ccco1)c1ccc2c(c1)CC(=O)N2Cc1cccc(F)c1 | inconclusive: 79.4 µM [inhibitor, single point]
CN(C)c1cc(=O)c2ccnc(-c3ccc(O)c(F)c3)c2o1 | inactive
O=c1n(-c2ccc([N+](=O)[O-])cc2)nc2n1CCN(Cc1cccc3ccccc13)C2 | inconclusive: 50.1 µM [inhibitor, partial curve, poor fit]
COc1ccc(CCC(=O)N2CCC(Cc3nc(-c4ccccc4)no3)CC2)cc1 | active: 35.5 µM
CCNc1nccc(N2CCC(CC(=O)NCc3ccccc3F)CC2)n1 | active: 39.8 µM
Cc1ccc(C(=O)N[C@H]2CO[C@H]3[C@@H]2OC[C@@H]3Nc2nccc(-c3cccc(F)c3)n2)cc1 | inactive
Cc1noc(C)c1-c1cc2cc(CN(C)C)oc2c(NCCOc2ccccc2)n1 | inconclusive: 89.1 µM [inhibitor, partial curve, poor fit]
Cn1cnnc1CC1CCN(C(=O)C2CCCC2)C1 (stereo unspecified) | inactive
COc1nc2c(cc1CNC(=O)CO)C(=O)N(CCc1ccccn1)C2 | inconclusive: 100 µM [inhibitor, partial curve, poor fit]
O=C(COc1ccccc1)N1CCN(c2cc(C(F)(F)F)ncn2)CC1 | inconclusive: 70.8 µM [inhibitor, single point]
COCCOCC(=O)N1CCC(N2C(=O)C3(CCCC3)C2c2ccccc2)CC1 (stereo unspecified) | inconclusive: 79.4 µM [inhibitor, partial curve, poor fit]
c1ccc(COc2ccccc2Cc2nc(-c3cccnn3)no2)cc1 | inconclusive: 39.8 µM [inhibitor, full curve, poor fit]
O=C(CN1CC2CC(C1)[C@H]1CCCC(=O)N1C2)NCc1cc(F)ccc1F (stereo partly specified) | inactive
O=C(Cc1ccccc1Cl)N1CCN(C(=O)c2nnn3c2COC(c2ccccc2)C3)CC1 (stereo unspecified) | inconclusive: 56.2 µM [inhibitor, partial curve, poor fit]
C[C@H]1[C@@H]2[C@H]3OC(=O)[C@H](C)C3CC[C@@]2(C)CC[C@@H]1NC(=O)c1ccncc1 (stereo partly specified) | inactive
COc1cccc(-c2cc3c(=O)n(CCNC(=O)c4ccccc4OC)ccn3n2)c1 | inconclusive: 50.1 µM [inhibitor, partial curve, poor fit]
COc1ccc(CN2CC(N3CCc4ccccc43)C2)cc1 | inconclusive: 112 µM [inhibitor, single point]
Cn1cccc1CN1CCC(N2C(=O)C(OCC3CC3)C23CCCCC3)CC1 (stereo unspecified) | active: 44.7 µM
Cc1cccc(C(C)(C)C)c1NC(=O)N1CCOC(C(F)(F)F)C1 (stereo unspecified) | inconclusive: 28.2 µM [inhibitor, partial curve, poor fit]
COCC(=O)Nc1ccc(-c2noc([C@@H]3CCCN3Cc3ccc(F)cc3)n2)cn1 | inconclusive: 100 µM [inhibitor, partial curve]
O=C(CCC1CCN(c2cc(NC3CC3)ncn2)CC1)NCc1ccccc1Cl | inconclusive: 50.1 µM [inhibitor, partial curve, poor fit]

SMILES | Potency
COCCCNC(=O)CNC(=O)c1ccc(-c2cnc3ccccc3c2)cc1 | active: 79.4 µM
COc1ccc(-c2cc3c(=O)n(CCNC(=O)c4sccc4C)ccn3n2)cc1 | inconclusive: 25.1 µM [inhibitor, full curve]
CCc1ccc(CNC(=O)CN2C(=O)NC3(CCC(C)CC3)C2=O)cc1 (stereo unspecified) | inconclusive: 79.4 µM [inhibitor, partial curve, poor fit]
CN1CCN(CCc2noc(C3CCCCCN3C)n2)CC1 (stereo unspecified) | inactive
O=C(Nc1ccccc1)N1CCC(OCc2noc(C3CCCO3)n2)CC1 (stereo unspecified) | inactive
Cc1ccc(Cc2nc(C3CC(=O)N(c4ccc(Cl)cc4)C3)no2)cc1 (stereo unspecified) | inconclusive: 56.2 µM [inhibitor, partial curve, poor fit]
CC(C)(C)c1ccnc(N[C@H]2CO[C@H]3[C@@H]2OC[C@@H]3NC(=O)CCCC(=O)O)n1 | inactive
O=C(NC1CCCCCC1)c1nc2sccn2c1-c1ccncc1 | inconclusive: 89.1 µM [inhibitor, partial curve]
CNC(=O)c1cc(C2CC2)nc2onc(C3CCN(C(=O)c4ccccc4OC)CC3)c12 | inactive
COc1cccc(-c2ccc(C(=O)N3CCC(NC(=O)Cc4ccccn4)CC3)cc2)c1 | inconclusive: 63.1 µM [inhibitor, partial curve, poor fit]
CC(C)CC(C)NC(=O)c1ccc(Cn2ccn3nc4c(c3c2=O)CCCC4)cc1 (stereo unspecified) | inconclusive: 20 µM [inhibitor, full curve]
O=C(NCCc1ccccc1)NCC1CCC(=O)N(Cc2ccccc2)CC1 (stereo unspecified) | inactive
O=C(c1nc(-c2ccc(F)cc2)c2ccccn12)N1CCOCC1 | active: 112 µM
O=C(NCc1cccnc1)C1CCCN(Cc2cccc(-c3ccc(F)cc3F)c2)C1 (stereo unspecified) | inconclusive: 50.1 µM [inhibitor, partial curve, poor fit]
COCCn1c(=O)c(C(=O)N2CCN([S+](=O)([O-])c3ccccc3)CC2)nc2cccnc21 | inactive
Cn1cc(CN2C[C@H](C(=O)Nc3ccccn3)C[C@@H]2c2cccc(C(F)(F)F)c2)cn1 | inconclusive: 100 µM [inhibitor, partial curve, poor fit]
O=C(O)C1(Oc2ccc3ncccc3c2)CCN(Cc2cccnc2)CC1 | inactive
COC(=O)c1ccc(CN2CCC(n3nccc3NC(=O)Cc3ccccc3)CC2)cc1 | inconclusive: 31.6 µM [inhibitor, partial curve, poor fit]
Cc1cccc(CC(C)NC(=O)c2coc(COc3ccc4c(c3)OCO4)n2)n1 (stereo unspecified) | inconclusive: 79.4 µM [inhibitor, partial curve, poor fit]
O=C(Nc1cccc2ccccc12)O[C@@H]1CO[C@H]2[C@@H]1OC[C@@H]2NC(=O)C1CCC1 | inactive
Cc1cccc(C(=O)N2CCN(c3cc(C(F)(F)F)nc(C)n3)CC2)c1 | inconclusive: 79.4 µM [inhibitor, partial curve, poor fit]
Cc1ccc(C)c(NC(=O)Cn2c(=O)n(-c3ccc(F)cc3)c(=O)c3c2cc(C)n3C)c1 | inconclusive: 79.4 µM [inhibitor, partial curve, poor fit]

SMILES | Potency
COCCN1C(=O)CS(=O)C12CCN(C(=O)Nc1ccccc1F)CC2 (stereo unspecified) | inactive
O=C(N1CCN(c2ccccn2)CC1)C1(CCO)CC12CCOCC2 (stereo unspecified) | inactive
NS(=O)(=O)c1ccc(C(=O)N2CCC(CO)(CN3CCCC3)CC2)cc1 | inconclusive: 39.8 µM [inhibitor, single point]
O=C(c1cc(CC2(NCc3ccccc3Cl)COC2)no1)N1CCCCC1 | inconclusive: 126 µM [inhibitor, single point]
O=C(c1ccc(Cl)cc1)N1CC2(CCCN(CC3CC3)C2)Cc2ccccc21 (stereo unspecified) | inconclusive: 50.1 µM [inhibitor, partial curve, poor fit]
Cc1c(F)cccc1NC(=O)N1CCC(n2cnnc2C2CC2)C1 (stereo unspecified) | inactive
CN(C)CC(=O)N1Cc2ccccc2CC2(CCCCN2Cc2ccccc2)C1 (stereo unspecified) | inconclusive: 89.1 µM [inhibitor, single point]
Cc1cn2nc(C(=O)N3CCC(NC(=O)c4ccc(C)s4)CC3)cc2c(=O)[nH]1 | inactive
O=C(NC[C@H]1O[C@@H](CO)[C@@H](O)[C@H]1N1CCOCC1)c1ccco1 | inactive
CC1(O)CCCN(c2ncc(C(C)(C)C(=O)O)c(N3CCOCC3)n2)C1 (stereo unspecified) | inactive
COc1ccc(NC(=O)N[C@H]2[C@H](O)[C@@H](N3CCC(Cc4ccccc4)CC3)[C@@H]3OC[C@H]2O3)cc1 | inconclusive: 50.1 µM [inhibitor, partial curve, poor fit]
C=CCNC(=O)c1coc(COc2ccc3c(c2)C(c2cccc(F)c2)N(C(=O)C2CC2)CC3)n1 (stereo unspecified) | inconclusive: 22.4 µM [inhibitor, partial curve, poor fit]
COCCN1CCCCCC(O)c2cc(C(=O)Nc3cccc(OC)c3)ccc21 (stereo unspecified) | inconclusive: 56.2 µM [inhibitor, partial curve, poor fit]
CC(=O)Nc1ccc(C(=O)N2CCN(c3cccc(C=O)c3)C(=O)C2)cc1 | inactive
CCN1C(=O)CCc2cc(NC(=O)c3ccc(OC(F)(F)F)cc3)ccc21 | active: 50.1 µM
COC1CCC(C(=O)N2CCCn3nc(C)c(-c4ccccc4C(C)C)c32)CC1 (stereo unspecified) | inconclusive: 89.1 µM [inhibitor, partial curve]
COc1ccccc1-c1cc(C(=O)N(C)CC#N)c2cnn(C)c2n1 | inactive
CCOc1cccc(CN2C[C@@H](Oc3ccccc3)C[C@@H]2C(=O)NC)c1 | inconclusive: 44.7 µM [inhibitor, partial curve, poor fit]
Cc1ccc(C(=O)NC[C@H]2O[C@@H](CC(=O)NC3CC3)[C@H](O)[C@@H]2O)cc1 | inactive
C[C@@H](NC(=O)N1CCOC[C@H]1c1ncc(-c2ccc(OC(F)(F)F)cc2)[nH]1)c1ccccc1 | inconclusive: 50.1 µM [inhibitor, partial curve, poor fit]
Cn1ncc2c(C(=O)NCc3cccs3)cc(-c3ccccc3C(F)(F)F)nc21 | inconclusive: 50.1 µM [inhibitor, partial curve, poor fit]
O[C@H]1CC[C@@H](Cc2cc(-c3ccc(F)cc3)on2)O[C@@H]1CNC1CCOCC1 | inactive
